Measured values taken from PubChem BioAssay AID1508623 (National Center for Advancing Translational Sciences (NCATS), 2021).
Hit rate of the full screen: of about 48,000 compounds, about 450 (0.94%) were called active. Inconclusive results (about 19%) are left out. Calls follow the shape of the dose curve; as a rule, active = well fitted inhibition curve with a large enough effect; inconclusive = small, poorly fitted or top-dose-only effect; inactive = no such curve, though single readings can be large or run the other way. The list shows a part of the results.

Assay: Primary qHTS for Identification of Small Molecule Inhibitors of Huntingtin Promoter Activity; also: nearly all actives have a fitted effect of over 50% in size
Conditions: HEK293 HTT promoter firefly luciferase reporter (activity 0% = vehicle and -100% = no light), 24 h; series mostly up to 57.5 µM; activity change, negative = inhibition: at the top concentration
Procedure, shortened: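 HEK293 Fluc reporter, 2,500 cells/well, 24 h pre-culture; cpds up to 57.5 uM final, 24 h 37 degrees C; Dual-Glo, 10 min RT; normalized vehicle = 0%, zero RLU = -100%.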
Potency is read from the fitted curve at half-maximal effect.

Question: Which “activity change, negative = inhibition” value does the source give for Cc1cccc(NC(=O)N2CCC(CN3CCC(C)CC3)CC2)c1C here?
Answer: The value was inactive: -9.94%.

Question: For CCOC(=O)c1c(C)[nH]c(C)c1S(=O)(=O)N1CCCC(C(=O)Nc2ccccc2OCC)C1 (stereo not given), which “activity change, negative = inhibition” value is on record?
Answer: The value was inactive: -22%.

Question: For CCc1cccc(CC)c1NC(=O)C(CC)n1nc(C)n2c(cc3cc(C)ccc32)c1=O (stereo not given), which “activity change, negative = inhibition” value is on record?
Answer: The value was inactive: 1.83%.

Question: For Cc1ccc2c(c1)C(c1ccccc1)N(C(=O)c1ccccc1F)CC(=O)N2 (stereo not given), which “activity change, negative = inhibition” value is on record?
Answer: Its value is inactive: -27.7%.

Question: Which “activity change, negative = inhibition” value does the source give for CCOC(=O)c1cccc(NC(=O)c2cc3cc4ccc(C)cc4nc3o2)c1 here?
Answer: Its value is inactive: 1.42%.

Question: For CCCn1c(SCc2nc(-c3cc(OC)ccc3OC)no2)nnc1-c1ccc(Cl)cc1, which “activity change, negative = inhibition” value is on record?
Answer: Its value is inactive: -23.4%.

Question: Which “activity change, negative = inhibition” value does the source give for CCN1CCN(c2csc3ccc(C)cc3c2=O)CC1 here?
Answer: The value was inactive: 48.7%.

Question: With Cc1ccccc1-c1noc(-c2cc3ccccc3oc2=O)n1 as the compound, how does the “activity change, negative = inhibition” value read?
Answer: The value was inactive: 110%.

Question: For COc1ccc(Br)cc1CNC(=O)CSc1cc(=O)n(C)c2ccccc12, which “activity change, negative = inhibition” value is on record?
Answer: Its value is inactive: -12.7%.

Question: With Cc1ccc(-c2nc(CS(=O)(=O)CC(=O)N3CCN(c4cccc(C)c4C)CC3)c(C)o2)cc1 as the compound, how does the “activity change, negative = inhibition” value read?
Answer: Its value is inactive: -21.4%.

Question: Which Potency does the source give for CC1CCN(S(=O)(=O)c2ccc3c(c2)oc(=O)n3CC(=O)NC(C)c2ccccc2)CC1 (stereo not given) here?
Answer: The Potency was active: 14.1 µM.

Question: For CCCc1ccc(OC(C)C(=O)Nc2sc3c(c2C(=O)OC)CCCCC3)cc1 (stereo not given), which “activity change, negative = inhibition” value is on record?
Answer: Its value is inactive: -14.1%.

Question: With CSc1nc(Nc2cccc(C)c2)c(C#N)c(-c2ccccc2)n1 as the compound, how does the “activity change, negative = inhibition” value read?
Answer: The value was inactive: -3.8%.

Question: For CNc1c(NC(=O)c2cc(OC)cc(OC)c2)c(=O)oc2ccccc12, which “activity change, negative = inhibition” value is on record?
Answer: The value was inactive: -7.87%.

Question: With Cn1c(SCC(=O)N2CCCc3ccccc32)ncc(C(=O)Nc2ccc(F)cc2)c1=O as the compound, how does the “activity change, negative = inhibition” value read?
Answer: The value was inactive: -4.61%.

Question: With CCCCNC(=O)c1nn(-c2ccc(C)cc2)c(=O)c2c1c1ccccc1n2C as the compound, how does the “activity change, negative = inhibition” value read?
Answer: Its value is inactive: -26.8%.

Question: For Cc1cccc(CNC(=O)c2cccc(NC(=O)N3CCSc4ncccc43)c2)c1, which “activity change, negative = inhibition” value is on record?
Answer: Its value is inactive: -25.3%.

Question: Which “activity change, negative = inhibition” value does the source give for O=C(O)CC(O)C(=O)O (stereo not given) here?
Answer: The value was inactive: -3.31%.

Question: For CCOc1ccc(-n2ccn3c(CC(C)CC(=O)O)nnc3c2=O)cc1 (stereo not given), which “activity change, negative = inhibition” value is on record?
Answer: Its value is inactive: -9.75%.

Question: Which “activity change, negative = inhibition” value does the source give for COc1ccc2c(c1)c1c(c(=O)n(-c3ccc(C)cc3)c(=O)n1CC(=O)N1CCCC1)n2C here?
Answer: Its value is inactive: -16.9%.

Question: Which “activity change, negative = inhibition” value does the source give for CCC12CN3CC(C)(CN(C1)C3c1ccccc1C)C2=O (stereo not given) here?
Answer: Its value is inactive: -7.42%.

Question: With CCOC(=O)C1=C[C@@H](OC(CC)CC)[C@H](NC(C)=O)[C@@H](N)C1 as the compound, how does the “activity change, negative = inhibition” value read?
Answer: The value was inactive: 7.94%.

Question: With CCOC(=O)N1CCC(NC(=O)c2ccc3c(c2)N(Cc2ccccc2)C(=O)c2ccccc2S3=O)CC1 (stereo not given) as the compound, how does the “activity change, negative = inhibition” value read?
Answer: Its value is inactive: -15.9%.

Question: For CCCCN(Cc1ccccc1)S(=O)(=O)c1cc(Br)cc2c1N(C(=O)C1CC1)CC2, which “activity change, negative = inhibition” value is on record?
Answer: The value was inactive: -24.9%.

Question: For CCCNC(=O)CCn1nc(-c2ccccc2)c2ccccc2c1=O, which activity change, negative = inhibition is on record?
Answer: Its activity change, negative = inhibition is inactive: -13.9% [at 11.5 µM].

Question: With O=C(CSc1nnc(CNC(=O)c2ccccc2F)n1-c1ccccc1)Nc1ccccc1F as the compound, how does the “activity change, negative = inhibition” value read?
Answer: Its value is inactive: -15.5%.

Question: For CC(=O)C1=C(c2ccc(Cl)c(Cl)c2)N(C(C)=O)n2c(nnc2C2CCCCC2)S1, which “activity change, negative = inhibition” value is on record?
Answer: The value was inactive: -5.93%.

Question: Which “activity change, negative = inhibition” value does the source give for O=C(CCc1nnc2n(Cc3ccccc3Cl)c(=O)c3ccccc3n12)Nc1ccc(F)cc1 here?
Answer: Its value is inactive: -12.2%.

Question: For CCC(Cn1nnc2ccccc2c1=O)NC(=O)Nc1ccc(C)cc1 (stereo not given), which “activity change, negative = inhibition” value is on record?
Answer: The value was inactive: 5.03%.

Question: Which “activity change, negative = inhibition” value does the source give for Cc1ccc(S(=O)(=O)c2cnc(SC(C)C(=O)Nc3ccccc3)[nH]c2=O)cc1 (stereo not given) here?
Answer: Its value is inactive: -5.88%.

Question: With CCOc1ccc(OCC)c(NC(=O)c2cc(CN3CCOCC3)on2)c1 as the compound, how does the “activity change, negative = inhibition” value read?
Answer: Its value is inactive: 13.2%.

Question: For Cc1ccc(NC(=O)CCNS(=O)(=O)c2ccc(Br)s2)cc1, which “activity change, negative = inhibition” value is on record?
Answer: The value was inactive: -10.7%.

Question: For CCOC(=O)C1CCCN(C(=O)c2cccc(NC(=O)c3nsc4ccccc34)c2)C1 (stereo not given), which “activity change, negative = inhibition” value is on record?
Answer: Its value is inactive: 52.3%.

Question: With O=C(NCCS(=O)(=O)N1CCN(c2ccccc2F)CC1)C(c1ccccc1)c1ccccc1 as the compound, how does the “activity change, negative = inhibition” value read?
Answer: The value was inactive: -25.2%.

Question: Which “activity change, negative = inhibition” value does the source give for CNCCCC1c2ccccc2C=Cc2ccccc21 here?
Answer: Its value is inactive: -12.7%.

Question: Which “activity change, negative = inhibition” value does the source give for Cc1ccc(-c2nc(NC(=O)CSc3ncnc4sc5c(c34)CCC(C)C5)ns2)cc1 (stereo not given) here?
Answer: Its value is inactive: 1.29%.

Question: With COc1ccc(-n2cc(C(=O)OCc3ccc(F)c(F)c3)c3ccccc3c2=O)cc1 as the compound, how does the “activity change, negative = inhibition” value read?
Answer: The value was inactive: -15.2%.

Question: For CCc1ccc(NS(=O)(=O)c2ccc3[nH]cc(C(=O)NCCc4cccc(C)c4)c(=O)c3c2)cc1, which “activity change, negative = inhibition” value is on record?
Answer: Its value is inactive: 0.525%.

Question: For COc1ccc(C2C(=O)N(C3CCCCC3)CC(=O)N2CCC2=CCCCC2)cc1 (stereo not given), which “activity change, negative = inhibition” value is on record?
Answer: The value was inactive: -19.3%.

Question: For O=C(NC1(C(F)(F)F)C(=O)Nc2c1c(=O)[nH]c(=O)n2-c1ccc(F)cc1)c1ccccc1 (stereo not given), which “activity change, negative = inhibition” value is on record?
Answer: Its value is inactive: -9.56%.

Question: Which “activity change, negative = inhibition” value does the source give for CCOc1ccc(-n2c(=O)c3sc4ccccc4c3n(Cc3cccc(C)c3)c2=O)cc1 here?
Answer: Its value is inactive: -20.3%.

Question: With Cc1ccc(OC(=O)c2cc(-c3ccc(Cl)cc3)on2)c(C)c1 as the compound, how does the “activity change, negative = inhibition” value read?
Answer: The value was inactive: -5.87%.

Question: For Cc1cccc(N2CCN(C(=O)CCc3c(C)nc4c(c3C)c(=O)n(C)c(=O)n4C)CC2)c1C, which “activity change, negative = inhibition” value is on record?
Answer: The value was inactive: -8.47%.

Question: Which “activity change, negative = inhibition” value does the source give for CC1CCC(NC(=O)c2ccc3c(c2)N(Cc2ccccc2F)C(=O)c2ccccc2S3=O)CC1 (stereo not given) here?
Answer: The value was inactive: 3.76%.

Question: For CCOc1ccc(CCNC(=O)Cn2ncn3c(cc4sc(C)cc43)c2=O)cc1OCC, which “activity change, negative = inhibition” value is on record?
Answer: Its value is inactive: -6.72%.

Question: For O=C(NCc1ccccc1)C(=O)NCC(c1ccc2c(c1)OCO2)N1CCOCC1 (stereo not given), which “activity change, negative = inhibition” value is on record?
Answer: The value was inactive: 11.4%.

Question: With COc1ccc2c(c1)sc1ncc(C(=O)NCc3ccc(Cl)cc3)c(=O)n12 as the compound, how does the “activity change, negative = inhibition” value read?
Answer: Its value is inactive: -3.81%.

Question: With CCN1CCN(c2oc(/C=C/c3ccc(OC)c(OC)c3)nc2C#N)CC1 as the compound, how does the “activity change, negative = inhibition” value read?
Answer: The value was inactive: -12.2%.

Question: Which “activity change, negative = inhibition” value does the source give for Clc1ccc(-c2cn3ncsc3n2)cc1 here?
Answer: The value was inactive: 11%.

Question: Which “activity change, negative = inhibition” value does the source give for COc1cccc(CNC(=O)C(NS(=O)(=O)c2cccs2)C(C)C)c1 (stereo not given) here?
Answer: The value was inactive: -12.1%.
